Reference: the supplement of paper PMC3334620
Whole data set: some 33,000 sequences, median “E-score (-0.5 to 0.5)” near -0.021, cut for the highest 2% near 0.32. The list shows a part of the results.

Biological target: T1, Zap1 (UniProt P47043)
T1 sequence: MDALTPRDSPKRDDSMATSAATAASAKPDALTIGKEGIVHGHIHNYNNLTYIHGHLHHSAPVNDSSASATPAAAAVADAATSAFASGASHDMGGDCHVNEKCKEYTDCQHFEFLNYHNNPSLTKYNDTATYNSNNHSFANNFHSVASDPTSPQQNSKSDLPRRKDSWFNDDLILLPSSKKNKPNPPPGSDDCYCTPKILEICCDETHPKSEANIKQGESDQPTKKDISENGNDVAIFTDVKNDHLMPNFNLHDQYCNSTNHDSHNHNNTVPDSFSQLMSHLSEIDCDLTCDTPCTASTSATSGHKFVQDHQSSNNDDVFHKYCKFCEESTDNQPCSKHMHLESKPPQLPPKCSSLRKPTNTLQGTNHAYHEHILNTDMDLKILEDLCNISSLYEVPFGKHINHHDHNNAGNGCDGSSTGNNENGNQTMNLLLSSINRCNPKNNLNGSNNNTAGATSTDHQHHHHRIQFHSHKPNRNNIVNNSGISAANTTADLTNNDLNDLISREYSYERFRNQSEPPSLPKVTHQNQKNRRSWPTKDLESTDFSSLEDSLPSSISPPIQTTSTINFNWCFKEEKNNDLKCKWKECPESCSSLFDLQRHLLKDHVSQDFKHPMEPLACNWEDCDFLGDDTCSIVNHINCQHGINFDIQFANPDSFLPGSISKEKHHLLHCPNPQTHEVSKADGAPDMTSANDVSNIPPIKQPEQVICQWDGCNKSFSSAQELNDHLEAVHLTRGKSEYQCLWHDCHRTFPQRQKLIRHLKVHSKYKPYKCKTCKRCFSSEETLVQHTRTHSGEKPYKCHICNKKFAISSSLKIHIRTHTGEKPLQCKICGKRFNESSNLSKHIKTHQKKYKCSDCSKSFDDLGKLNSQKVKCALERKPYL
Experiment: PBM E-score (8-mer binding enrichment) (E-score (-0.5 to 0.5)); higher = stronger / more preferred TF binding; most listed sequences are background and not binding sites
Conditions: protein concentration: 200 nM; construct: GST-full length
How it was run: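 Each ungapped eight-base word and its reverse complement, pooled, received an E-score from the Universal PBM Analysis Suite. Underlying scans, normalised with masliner, recorded fluorescent anti-GST bound to GST-tagged yeast transcription factors. These were applied at about 100-200 nM to universal all-10-mer Agilent arrays double-stranded by primer extension.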

Sequence	PBM E-score
ATATTAGC	0.0529
AATGACAC	-0.221
CCTAGCAC	-0.0627
CGGTCATA	0.201
AAGCACGT	-0.3
TAGCAAGA	-0.0851
GCTACTAC	0.108
ATTTGGAC	-0.0184
GCAATCAA	0.0754
CCGCGACA	0.181
ATTACCCC	0.316
GGTGAGGA	0.0577
TACAATGA	0.0619
CTAAATAA	0.254
AGGATCAT	0.169
AATCGCCC	-0.167
GCGGGGTA	0.293
AGCCCGGG	-0.128
ATGCGGCG	-0.0249
AATCCAGA	0.101
GTCCTGAA	0.0284
AACATTCT	0.0247

Sequence	PBM E-score
CTGGACAC	0.0291
AACTCGTG	0.0591
AAACTGTT	0.00368
CAGAAGAA	-0.133
TCGGACGA	-0.154
ACTAAAAT	0.114
AGCAACTG	-0.00851
CTATTCCA	0.0678
GCTATTCA	-0.018
GGACCCAA	-0.0434
TAACCGTA	0.31
ATCCAGGG	-0.0673
CTGCCTAC	-0.0582
CGTCGCCA	-0.167
AGTCCGGG	0.00147
GCCAGCTA	-0.0851
GGCCGGAC	-0.149
CGGGTGAA	0.118
CCCGCGCG	0.0433
GAGAGAAA	-0.059
GACTTTGC	-0.2
AGTATCTC	-0.0776

Sequence	PBM E-score
AAAACATA	0.0671
GACGGATC	-0.244
AATACGTG	-0.148
ATTGATTG	0.0592
GCTTTAAC	0.186
ATAAATTG	0.288
CGTGAACG	-0.139
CCATTCCC	-0.258
ACGCTATG	-0.2
CTAGGATA	0.0587
CGTTCACC	-0.136
AAAACGTA	0.0762
GCGATCAC	-0.0868
AAAAATAT	0.259
CCAACCTC	0.0926
GGCTCAAA	-0.176
ACTCGCCC	-0.221
AAGAGCTA	-0.0268
CTTGGCGA	-0.223
CAAGGATG	-0.208
AGACCAAC	0.038
CATAGGCC	0.054

Sequence	PBM E-score
GTTGCAAC	0.241
CTACATAA	-0.0843
CTAAAGTC	-0.179
TATAACCA	0.45
ACTATTAC	0.0281
CCTGGAGC	-0.167
AATCTTGC	0.0897
TAAGCGAA	-0.0964
ACATTTGA	0.0301
ACGGCCGG	0.0492
TGACATCA	-0.0931
ACACGTTC	-0.252
AGCCATTA	0.126
GTCAGCAA	-0.0146
ACCATCGA	-0.0155
AAGAAACC	0.142
TAATTAGA	0.147
AATGCCGG	-0.095
ATCAGCAA	0.00697
AAAGACCC	0.264
